Source: PubChem BioAssay (NCATS)
Where “and” joins values, the source holds several entries; their conditions need not be identical. Identical values can stand only once. The inconclusive results got no clear call from the source; some entries with a clear call stand among them for comparison. For some assays here: Where the call is inconclusive, the potency comes from a doubtful curve fit. Some compounds were tested as several samples or in several runs, with calls that do not always agree. Calls of active or inactive are those of the source. Calls come from the whole dose curve; as a rule, active = well fitted curve in the direction sought with a large enough effect; inconclusive = small, poorly fitted or top-dose-only effect, or another doubt; inactive = no such curve, though single readings can be large; an effect the other way counts as inactive or inconclusive.

Key:
[1] = P-glycoprotein substrates identified in KB-8-5-11 adenocarcinoma cell line, qHTS therapeutic library screen (AID 1346987); note: nearly all actives have a fitted effect of over 65% in size; note: potency is the fitted concentration of half-maximal effect
Procedure, shortened: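 P-gp-mediated resistance screen: KB-8-5-11 cells treated 72 h with compounds in dose-response. CellTiter-Glo viability.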

[2] = Primary qHTS for inhibitors of nuclear receptor binding SET domain protein 2 (NSD2) in an isogenic RCH-ACV NSD2 p.E1099K mutant (9B) (AID 1645876); note: potency is the fitted concentration of half-maximal effect; nearly all actives have a fitted effect of over 70% in size
[3] = Primary qHTS for inhibitors of nuclear receptor binding SET domain protein 2 (NSD2) in an RCH-ACV wild type WT cells (2C) (AID 1645877); settings: activity change, negative = cell killing: at 44.9 µM (top of the series) unless noted; note: potency is the fitted concentration of half-maximal effect; nearly all actives have a fitted effect of over 70% in size
[4] = system: CRL-7250; test: Cytotoxic Profiling of Annotated Libraries Using Quantitative High-Throughput Screening (AID 1296008); settings: Five cell lines viability, CellTiter-Glo ATP luminescence, 48-72 h; max response: stronger effect = lower value; note: nearly all actives have a fitted effect of over 60% in size; note: potency is the fitted concentration of half-maximal effect
Procedure, shortened: (§1)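 Compounds were pin-transferred onto cells and incubated 48 or 72 hr at 37 degree Celsius, 95% humidity. CellTiter-Glo was added, plates sat 10 min at room temperature, then ATP-coupled luminescence was imaged as the viability read-out.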

[5] = system: HaCat; test: as above; settings: Five cell lines viability, CellTiter-Glo ATP luminescence, 48-72 h; max response: stronger effect = lower value
Procedure, shortened: as §1

[6] = system: KB-3-1; test: as above; settings: Five cell lines viability, CellTiter-Glo ATP luminescence, 48-72 h; max response: stronger effect = lower value
Procedure, shortened: as §1

[7] = system: NIH3T3; test: as above; settings: Five cell lines viability, CellTiter-Glo ATP luminescence, 48-72 h; max response: stronger effect = lower value
Procedure, shortened: as §1

[8] = system: CASKI; test: Primary qHTS to identify gynecologic anti-cancer compounds using libraries of approved drugs and bioactive compounds (AID 1345084); settings: Gynecologic cancer cell panel viability, ATPlite luminescence, 48 h; series mostly up to 57.5 µM; note: nearly all actives have a fitted effect of over 55% in size; note: potency is the fitted concentration of half-maximal effect
Procedure, shortened: (§2)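 Luminescence from the ATPlite ATP-monitoring reagent indicates viable cell number; lower signal means cytotoxicity. Cells received compound 16 h after seeding and were exposed for 48 h across five concentrations.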

[9] = system: JEG-3; test: as above; settings: Gynecologic cancer cell panel viability, ATPlite luminescence, 48 h; series mostly up to 57.5 µM
Procedure, shortened: as §2

[10] = system: C33A; test: as above; settings: Gynecologic cancer cell panel viability, ATPlite luminescence, 48 h; series mostly up to 57.5 µM
Procedure, shortened: as §2

[11] = system: CAOV3; test: as above; settings: Gynecologic cancer cell panel viability, ATPlite luminescence, 48 h; activity change, negative = cytotoxicity: at 57.5 µM (top of the series)
Procedure, shortened: as §2

[12] = system: Hek293T; test: as above; settings: Gynecologic cancer cell panel viability, ATPlite luminescence, 48 h, control line for the selectivity index; activity change, negative = cytotoxicity: at 57.5 µM (top of the series) unless noted
Procedure, shortened: as §2

[13] = system: OV90; test: as above; settings: Gynecologic cancer cell panel viability, ATPlite luminescence, 48 h; series mostly up to 57.5 µM
Procedure, shortened: as §2

[14] = system: PA-1; test: as above; settings: Gynecologic cancer cell panel viability, ATPlite luminescence, 48 h; series mostly up to 57.5 µM
Procedure, shortened: as §2

[15] = system: SKOV3; test: as above; settings: Gynecologic cancer cell panel viability, ATPlite luminescence, 48 h; series mostly up to 57.5 µM
Procedure, shortened: as §2

[16] = system: Tov-21-G; test: as above; settings: Gynecologic cancer cell panel viability, ATPlite luminescence, 48 h; activity change, negative = cytotoxicity: at 57.5 µM (top of the series) unless noted
Procedure, shortened: as §2

[17] = system: Tov112D; test: as above; settings: Gynecologic cancer cell panel viability, ATPlite luminescence, 48 h; series mostly up to 57.5 µM
Procedure, shortened: as §2

[18] = system: Zika virus NS2B-NS3 protease (unlinked complex); test: Primary screen GU Rhodamine qHTS for Zika virus inhibitors: Unlinked NS2B-NS3 protease assay (AID 1347159); note: nearly all actives have a fitted effect of over 60% in size
Procedure, shortened: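 Noncovalent NS2B hydrophilic domain/NS3 protease complex (25 nM final) in 10 mM Tris-HCl pH 8.0, 0.01% Tween 20, preincubated 15 min with compounds (up to 114 microM), then 1.5 microM Rhodamine110 substrate. Fluorescence change over 15 min fitted to 4-parameter Hill.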

[19] = system: HeLa; test: Primary qHTS to identify gynecologic anti-cancer compounds using libraries of approved drugs and bioactive compounds (AID 1345084); settings: Gynecologic cancer cell panel viability, ATPlite luminescence, 48 h; activity change, negative = cytotoxicity: at 57.5 µM (top of the series); note: nearly all actives have a fitted effect of over 55% in size; note: potency is the fitted concentration of half-maximal effect
Procedure, shortened: as §2

[20] = system: Es-2; test: as above; settings: Gynecologic cancer cell panel viability, ATPlite luminescence, 48 h; series mostly up to 57.5 µM
Procedure, shortened: as §2

Measured: Potency
Tags give direction and shape of the fitted curve.

C[C@@H](O[C@H]1OCCN(Cc2n[nH]nc2CN(C)C)[C@H]1c1ccc(F)cc1)c1cc(C(F)(F)F)cc(C(F)(F)F)c1
active: [2] 16.3 µM | [3] 14.5 µM
inactive: [8] | [9]
inconclusive: [1] 16.4 µM [inhibitor, single point] | [4] 18.4 µM [inhibitor, single point] | [5] 20.6 µM [inhibitor, partial curve] | [6] 25.9 µM [inhibitor, single point] | [7] 29.1 µM [inhibitor, single point]

C[C@@]12C(=O)OC(=O)[C@@]1(C)C1CCC2O1
active: [1] 5.26 µM | [4] 5.26 µM | [5] 26.4 µM | [6] 7.43 µM

COc1cccc2c1C(=O)c1c(O)c3c(c(O)c1C2=O)C[C@@](O)(C(C)=O)C[C@H]3O[C@H]1C[C@H](N)[C@H](O)[C@H](C)O1
inconclusive: [1] 5.26 µM [inhibitor, full curve]
active: [4] 0.132 µM | [5] 0.418 µM | [6] 0.235 µM

C=C(C)C(=O)OC1CC2(C)OC(=CC2=O)C(=C)CC2OC(=O)C(=C)C12 (stereo not given)
active: [1] 10.1 µM | [4] 3.21 µM | [5] 5.08 µM | [7] 2.86 µM | [12] 6.31 µM | [14] 7.94 µM | [15] 10 µM | [16] 4.47 µM
inconclusive: [6] 20.2 µM [inhibitor, single point] | [10] 14.1 µM [cytotoxic, single point] | [11] 6.31 µM [cytotoxic, partial curve, poor fit] | [13] 22.4 µM [cytotoxic, single point] | [17] 25.1 µM [cytotoxic, single point]

CC[C@]12C=CCN3CC[C@@]4(c5cc([C@@]6(C(=O)OC)C[C@H]7C[C@@H](C(C)(F)F)CN(Cc8c6[nH]c6ccccc86)C7)c(OC)cc5N(C)[C@H]4[C@@](O)(C(=O)OC)[C@@H]1OC(C)=O)[C@@H]32
inconclusive: [7] 0.306 µM [inhibitor, full curve] | [10] 0.562 µM [cytotoxic, partial curve, poor fit] | [8] 0.282 µM [cytotoxic, full curve, poor fit] | [12] 0.224 µM [cytotoxic, full curve] | [9] 0.224 µM [cytotoxic, full curve, poor fit] | [13] 12.6 µM [cytotoxic, single point] | [15] 0.398 µM [cytotoxic, full curve]
active: [1] 5.44 µM | [2] 0.139 µM | [3] 0.0879 µM | [4] 0.485 µM | [6] 0.137 µM | [16] 0.562 µM | [17] 0.251 µM
inactive: [18] | [5]

Cc1cc(F)c(C(=O)Nc2cccc(-c3nncn3C(C)C)n2)cc1-n1cnc(C2CC2)c1
inactive: [14] | [15] | [16] | [17]
inconclusive: [1] 10 µM [inhibitor, partial curve] | [4] 15.9 µM [inhibitor, single point] | [5] 14.2 µM [inhibitor, single point] | [6] 7.96 µM [inhibitor, single point] | [7] 8.93 µM [inhibitor, partial curve, poor fit] | [10] 20 µM [cytotoxic, single point] | [19] 0.501 µM [cytotoxic, partial curve, poor fit]

Cc1ccc(O)cc1Nc1ccnc(Nc2cccc(C(N)=O)c2)n1
active: [3] 4.09 µM | [7] 2.31 µM | [16] 10 µM
inconclusive: [4] 7.31 µM [inhibitor, partial curve] | [5] 6.51 µM [inhibitor, partial curve, poor fit] | [6] 20.6 µM [inhibitor, single point] | [8] 7.08 µM [cytotoxic, partial curve, poor fit] | [20] 25.1 µM [cytotoxic, single point] | [19] 28.2 µM [cytotoxic, partial curve] | [12] 15.8 µM [cytotoxic, partial curve] | [13] 8.91 µM [cytotoxic, partial curve, poor fit] | [14] 14.1 µM [cytotoxic, partial curve] | [15] 28.2 µM [cytotoxic, partial curve, poor fit] | [17] 25.1 µM [cytotoxic, partial curve]

CC(C)n1cnc2c(-c3cnc(N)nc3)nc(N3CCOCC3)nc21
active: [1] 0.709 µM | [2] 0.159 µM | [4] 0.709 µM | [5] 0.632 µM | [12] 1.12 µM | [15] 1.26 µM
inconclusive: [6] 1 µM [inhibitor, full curve] | [7] 0.796 µM [inhibitor, partial curve, poor fit] | [11] 1.78 µM [cytotoxic, full curve, poor fit] | [8] 0.794 µM [cytotoxic, full curve] | [20] 2.24 µM [cytotoxic, full curve] | [19] 1.41 µM [cytotoxic, full curve, poor fit] | [13] 3.55 µM [cytotoxic, full curve] | [14] 1.12 µM [cytotoxic, full curve, poor fit] | [16] 1.41 µM [cytotoxic, full curve] | [17] 1.41 µM [cytotoxic, full curve]

Cc1cc(Nc2cc(CN3CCOCC3)c3nc(C)c(Cc4ccc(Cl)cc4F)n3n2)n[nH]1
inconclusive: [4] 33.2 µM [inhibitor, single point] and 18.4 µM [inhibitor, single point] | [20] 35.5 µM [cytotoxic, single point] | [9] 25.1 µM [rising, single point] | [13] 3.98 µM [cytotoxic, full curve, poor fit] | [15] 39.8 µM [cytotoxic, single point] | [16] 31.6 µM [cytotoxic, partial curve, poor fit]
active: [5] 14.8 µM | [6] 4.18 µM and 5.17 µM

CC(=O)OC12COC1CC(O)C1(C)C(=O)C(O)C3=C(C)C(OC(=O)C(O)C(NC(=O)OC(C)(C)C)c4ccccc4)CC(O)(C(OC(=O)c4ccccc4)C21)C3(C)C (stereo not given)
inconclusive: [4] 0.0058 µM [inhibitor, full curve, poor fit] | [5] 0.0046 µM [inhibitor, full curve, poor fit] | [8] 6.31 µM | [20] 0.1 µM [cytotoxic, full curve, poor fit] | [19] 11.2 µM | [12] 0.631 µM | [14] 28.2 µM | [16] 0.0251 µM
inactive: [15]
active: [1] 0.164 µM | [6] 0.0018 µM

CC(=O)NC[C@H]1CN(c2ccc(N3CCN(C(=O)CO)CC3)c(F)c2)C(=O)O1
inactive: [1] | [18]
inconclusive: [2] 9.16 µM [inhibitor, partial curve, poor fit] | [3] 0.0515 µM [inhibitor, full curve, poor fit] | [4] 23.1 µM [inhibitor, single point] | [5] 29.1 µM [inhibitor, single point] | [7] 20.6 µM [inhibitor, single point] | [10] 31.6 µM [cytotoxic, single point] | [11] 39.8 µM [cytotoxic, single point] | [8] 39.8 µM [cytotoxic, single point] | [20] 28.2 µM [cytotoxic, single point] | [19] 39.8 µM [cytotoxic, single point] | [12] 28.2 µM [cytotoxic, single point] | [9] 39.8 µM [cytotoxic, single point] | [13] 17.8 µM [cytotoxic, single point] | [14] 39.8 µM [cytotoxic, single point] | [15] 25.1 µM [cytotoxic, partial curve, poor fit] | [16] 39.8 µM [cytotoxic, single point] | [17] 39.8 µM [cytotoxic, single point]
